The full ranking holds about 110,000 compounds; the median of “z-score” is about -0.1, and the highest 2% start at about 2. This is one part of the list. Active and inactive are the calls of the source.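 How the source made its calls: active means z-score in the third read window above 3 or below -3; inactive means the rest.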
The compounds below were run against Metabotropic glutamate receptor 8 (Rattus norvegicus) (UniProt P70579) (assay: rat mGluR8 modulators via GIRK flux, primary screen, cell-based, thallium flux, HTS (AID 488969)). Settings: HEK293 rat mGluR8, GIRK (G protein-gated inwardly rectifying potassium channel) thallium flux, FluoZin2; at 10 µM; stronger effect = higher value; submaximal glutamate (EC20) added with thallium.
Chain of UniProt P70579 (P70579 whole entry, looked up): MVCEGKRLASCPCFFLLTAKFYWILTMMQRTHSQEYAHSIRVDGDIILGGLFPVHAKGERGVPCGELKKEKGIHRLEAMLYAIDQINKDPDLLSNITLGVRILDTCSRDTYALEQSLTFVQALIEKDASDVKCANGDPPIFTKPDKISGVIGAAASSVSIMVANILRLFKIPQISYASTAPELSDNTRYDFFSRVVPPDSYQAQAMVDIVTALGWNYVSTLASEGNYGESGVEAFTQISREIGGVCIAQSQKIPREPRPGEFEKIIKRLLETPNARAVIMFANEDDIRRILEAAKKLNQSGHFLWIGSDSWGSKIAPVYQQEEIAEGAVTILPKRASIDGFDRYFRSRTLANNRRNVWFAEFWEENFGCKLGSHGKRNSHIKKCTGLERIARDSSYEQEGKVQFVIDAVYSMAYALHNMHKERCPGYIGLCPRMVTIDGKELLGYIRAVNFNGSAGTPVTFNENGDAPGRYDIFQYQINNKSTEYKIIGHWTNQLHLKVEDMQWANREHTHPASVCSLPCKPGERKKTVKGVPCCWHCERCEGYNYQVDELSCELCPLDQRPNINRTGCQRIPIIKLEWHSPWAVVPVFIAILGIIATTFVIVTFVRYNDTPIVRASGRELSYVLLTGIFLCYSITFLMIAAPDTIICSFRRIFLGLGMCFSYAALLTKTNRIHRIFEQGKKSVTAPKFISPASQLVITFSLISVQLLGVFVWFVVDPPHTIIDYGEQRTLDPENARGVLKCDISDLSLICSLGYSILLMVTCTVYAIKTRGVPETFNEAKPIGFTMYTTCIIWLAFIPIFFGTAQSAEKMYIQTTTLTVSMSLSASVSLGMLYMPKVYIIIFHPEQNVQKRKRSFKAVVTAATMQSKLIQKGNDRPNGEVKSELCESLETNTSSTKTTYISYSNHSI

Question: With `CC(=O)c1cccc(N/C=C\C(=O)c2ccc(C)cc2)c1` as the compound, how does the z-score read?
Answer: -0.165

Question: With `Cc1occc1C(=O)Nc1ccccc1NC(=O)c1ccoc1C` as the compound, how does the z-score read?
Answer: 0.13

Question: Which z-score does the source give for `COc1ccc(C(=O)N/N=C2/SCC(=O)N2Cc2ccc3c(c2)OCO3)cc1OC` here?
Answer: 0.521

Question: For `CC(C)C(=O)Nc1nnc(SCC(=O)Nc2ccc3c(c2)OCO3)s1`, which z-score is on record?
Answer: -0.107

Question: `CC(C)(C)c1ccc(OCC(=O)NCc2ccco2)cc1` was tested. Which z-score did it give?
Answer: -0.288

Question: Which z-score does the source give for `Cc1[nH]c2ccccc2c1/C=C/C(=O)c1ccccc1` here?
Answer: 0.793

Question: With `CCOC(=O)Cn1nc(/C=C/c2ccc(C)cc2)ccc1=O` as the compound, how does the z-score read?
Answer: -0.0199

Question: `Cc1nn(Cc2ccc(Cl)cc2Cl)c(Cl)c1/C=C/C(=O)OCC(=O)NCC(F)(F)F` was tested. Which z-score did it give?
Answer: -0.136

Question: With `Cc1ccc(S(=O)(=O)n2c(CN3CCCC(C)C3)nc3ccccc32)cc1` (centres undefined) as the compound, how does the z-score read?
Answer: -0.131

Question: How did the z-score turn out when `C=CCn1c(SCC(=O)Nc2cc(C)on2)nc2sc(CC)cc2c1=O` was run?
Answer: -0.296

Question: How did the z-score turn out when `CCCCOC(=O)C1=C(C)Nc2nnnn2C1c1ccc(OC)c(OC)c1OC` (centres undefined) was run?
Answer: -0.468

Question: With `COc1ccccc1NC(=S)N(Cc1ccco1)Cc1cc2cccc(C)c2[nH]c1=O` as the compound, how does the z-score read?
Answer: -0.245

Question: For `O=C1C(Cc2cccc([N+](=O)[O-])c2)SC(=Nc2ccccc2)N1c1ccccc1` (centres undefined), which z-score is on record?
Answer: -0.396

Question: For `O=C(c1ccccn1)c1conc1C(=O)c1ccc(Br)cc1`, which z-score is on record?
Answer: -0.238

Question: `O=C(Nc1ccnc(-c2cccnc2)n1)c1cccc(Cl)c1Cl` was tested. Which z-score did it give?
Answer: -0.71

Question: How did the z-score turn out when `COc1cccc(/C=N/NC(=O)c2cccc([N+](=O)[O-])c2)c1OS(=O)(=O)c1ccccc1` was run?
Answer: -0.638

Question: Which z-score does the source give for `CCCc1nc2ccccc2c(C(=O)OCC(=O)NCc2ccc3c(c2)OCO3)c1CC` here?
Answer: -0.306

Question: For `COc1ccc(C2C=C(c3ccccc3)Nc3nnnn32)cc1` (centres undefined), which z-score is on record?
Answer: -0.00589

Question: With `CCC(=O)N1CCN(c2ccccc2NC(=O)COc2ccccc2Cl)CC1` as the compound, how does the z-score read?
Answer: -1.24

Question: For `CCc1noc(C)c1C(=O)Nc1nc(-c2ccc(Cl)cc2Cl)cs1`, which z-score is on record?
Answer: -0.135

Question: `O=C(NC1CCCCCC1)c1nc2ncccn2n1` was tested. Which z-score did it give?
Answer: 0.723

Question: For `CN(C)S(=O)(=O)Nc1ccc(NS(=O)(=O)N(C)C)c(S(=O)(=O)c2ccccc2)c1`, which z-score is on record?
Answer: -0.106

Question: `O=C1[C@@H]2[C@H](C(=O)N1O)[C@H]1C=C[C@@H]2C1` was tested. Which z-score did it give?
Answer: -0.447

Question: `NS(=O)(=O)c1ccc(CNC(=O)C23CC4CC(CC(C4)C2)C3)cc1` was tested. Which z-score did it give?
Answer: 0.404

Question: `CC(=O)c1cc(F)c(N2CCN(CCC#N)CC2)cc1C` was tested. Which z-score did it give?
Answer: 0.142

Question: For `Cc1noc(C)c1C(=O)OCC(=O)c1cc(C)n(Cc2ccccc2Cl)c1C`, which z-score is on record?
Answer: -0.108

Question: Which z-score does the source give for `COC(=O)c1ncccc1SC` here?
Answer: -0.0754

Question: With `CCOC(=O)c1cn(Cc2ccc(Br)cc2)nn1` as the compound, how does the z-score read?
Answer: 0.0601

Question: How did the z-score turn out when `COC(=O)c1ccccc1NC(=O)Cn1nnc(-c2ccc(OC)cc2)n1` was run?
Answer: -0.0245

Question: How did the z-score turn out when `Cc1cc(C(F)(F)F)nn1CC(=O)N1CCOCC1` was run?
Answer: -0.0383

Question: Which z-score does the source give for `COC(=O)c1ccccc1NC(=S)NC(=O)c1ccccc1` here?
Answer: active: 13.1

Question: How did the z-score turn out when `CCc1cc(=O)oc2cc3oc(C)c(C)c3cc12` was run?
Answer: -0.296

Question: For `Cc1cc(C)nc(N2C(=O)CC(Cc3ccccc3)C2=O)n1` (centres undefined), which z-score is on record?
Answer: 0.422

Question: With `CCCCNC(=S)NNC(=O)c1csc(C)c1C` as the compound, how does the z-score read?
Answer: 0.0325

Question: For `CC1(C(=O)NC2CCCCCCC2)CCC(=O)N1Cc1cccnc1` (centres undefined), which z-score is on record?
Answer: -0.154

Question: How did the z-score turn out when `CC1(C)CC(=O)C=C(Nc2ccc(OCC(F)(F)C(F)F)cc2)C1` was run?
Answer: 0.523

Question: With `CCN(CC)C(=O)C1CCCN(c2ccc([N+](=O)[O-])cc2/C=N/NC(=O)c2ccc([N+](=O)[O-])cc2)C1` (centres undefined) as the compound, how does the z-score read?
Answer: -1.4

Question: With `COc1cc(-c2cc3nc(C)c(C)c(=O)n3[nH]2)cc(OC)c1OC` as the compound, how does the z-score read?
Answer: 2.19

Question: `COC(=O)c1c(C(=O)OC)c2ccncn2c1Cl` was tested. Which z-score did it give?
Answer: 0.148

Question: `Cc1nc2ccccc2c(=O)n1NC(=O)c1ccco1` was tested. Which z-score did it give?
Answer: -0.0351

Question: How did the z-score turn out when `CCOC(=O)c1ccc(COC(=O)c2cc3ccccc3oc2=O)o1` was run?
Answer: -1.71

Question: `CCN(CC)S(=O)(=O)c1ccc(Cl)c(NC(=O)c2ccc(C#N)cc2)c1` was tested. Which z-score did it give?
Answer: -0.194

Question: With `Nc1nc(SCc2ccccc2)ns1` as the compound, how does the z-score read?
Answer: 0.245

Question: For `COc1ccc(C(C(=O)NC(C)(C)C)N(Cc2ccco2)C(=O)CCC(=O)Nc2cc(C)on2)cc1` (centres undefined), which z-score is on record?
Answer: -0.0039

Question: `CCC(C)[C@H](NC(=O)NCc1ccc(Cl)cc1)C(=O)OC` (some centres undefined) was tested. Which z-score did it give?
Answer: -0.377

Question: `O=C(OCc1nnc(-c2ccccc2)o1)c1ccco1` was tested. Which z-score did it give?
Answer: -1.24

Question: For `CC(C)(C)c1ccc(S(=O)(=O)NCC(=O)N2CCN(C(=O)c3ccco3)CC2)cc1`, which z-score is on record?
Answer: -0.0781

Question: For `Cc1c(Cl)cccc1NC(=S)NCc1ccccc1Cl`, which z-score is on record?
Answer: 0.101

Question: Which z-score does the source give for `COc1ccc(NC(=O)C2CC(=O)OC23CCOC(C)(C)C3)cc1` (centres undefined) here?
Answer: 0.397

Question: How did the z-score turn out when `COc1ccc(S(=O)(=O)N(CC(=O)N2CCN(C)CC2)C2CCCCC2)cc1OC` was run?
Answer: 1.28

Question: With `CCCCCCNC(=O)c1c(N)n(/N=C/c2ccco2)c2nc3ccccc3nc12` as the compound, how does the z-score read?
Answer: -0.0764

Question: Which z-score does the source give for `Cc1nc2sc(C(c3ccccc3)N3CCOCC3)c(O)n2n1` (centres undefined) here?
Answer: 0.0911

Question: Which z-score does the source give for `CCOc1cc(S(=O)(=O)NC2CCCC2)ccc1Cl` here?
Answer: 0.424

Question: How did the z-score turn out when `CNC(=O)CN(c1ccc2c(c1)OCCO2)S(C)(=O)=O` was run?
Answer: -0.0586

Question: How did the z-score turn out when `O=C(c1ccco1)N1CCN(S(=O)(=O)c2ccc3c(c2)CCN3C(=O)C2CC2)CC1` was run?
Answer: -0.077

Question: With `CCCn1nc2cc(C(=O)NCc3ccccc3OC)ccc2c1OCC` as the compound, how does the z-score read?
Answer: -0.367

Question: `CCOC(=O)c1cnc2ccc(OCC)cc2c1N1CCN(c2ccccc2)CC1` was tested. Which z-score did it give?
Answer: 0.111

Question: For `O=C(NC(=S)NCCC1=CCCCC1)c1cncc(Br)c1`, which z-score is on record?
Answer: 1.85

Question: `COCCCN(C(=S)NC(=O)c1ccc(C(C)(C)C)cc1)c1c(N)n(Cc2ccccc2)c(=O)[nH]c1=O` was tested. Which z-score did it give?
Answer: -0.0611

Question: With `CCOC(=O)N1CCN(C(=O)C2COc3ccccc3O2)CC1` (centres undefined) as the compound, how does the z-score read?
Answer: 0.212

Question: `COC(=O)c1ccc(CSc2nnnn2Cc2ccccc2)cc1` was tested. Which z-score did it give?
Answer: -0.989

Question: For `N#Cc1ccccc1-n1c(N)c(C(=O)N2CCCC2)sc1=S`, which z-score is on record?
Answer: 0.327

Question: How did the z-score turn out when `COc1ccc(-n2c(SCc3ccc([N+](=O)[O-])cc3)nnc2-c2ccc(C)cc2)cc1` was run?
Answer: -0.158

Question: Which z-score does the source give for `CSc1nc2ccc(S(=O)(=O)N(C)C)cc2s1` here?
Answer: -0.547

Question: With `O=S(=O)(NCC1CCCO1)c1ccc2oc3ccc(S(=O)(=O)NCC4CCCO4)cc3c2c1` (centres undefined) as the compound, how does the z-score read?
Answer: -1.32

Question: Which z-score does the source give for `Cc1ccc2nsnc2c1S(=O)(=O)Nc1cccc2nsnc12` here?
Answer: active: 14.7

Question: How did the z-score turn out when `COc1ccc(C(C(=O)NC2CCCC2)N(C(=O)c2ccco2)c2ccc(OC)c(OC)c2)cc1` (centres undefined) was run?
Answer: -0.241

Question: With `Cc1cc(C(=O)COC(=O)CC2Sc3ccccc3NC2=O)c(C)n1-c1ccc(Br)cc1` (centres undefined) as the compound, how does the z-score read?
Answer: -0.0506

Question: How did the z-score turn out when `CCCCNC(=S)N/N=C/c1ccc(OCC(=O)Nc2c(C)cc(C)cc2C)c(OC)c1` was run?
Answer: 0.0537
